This note sets out measurements from article PMC12136788.

Some of the results follow.

The chains are these.
T1: UNK ZnF1-3 (human, UniProt Q9C0B0 31-174)
T1 sequence: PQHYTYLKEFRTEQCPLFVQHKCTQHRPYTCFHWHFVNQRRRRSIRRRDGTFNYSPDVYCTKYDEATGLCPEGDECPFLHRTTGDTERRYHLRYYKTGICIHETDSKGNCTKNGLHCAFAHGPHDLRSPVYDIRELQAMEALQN

B1: chr11:74490848:74490849:-_ENSMUSG00000020745_ENSMUST00000021091|mus_mus|motif|central (ssRNA)
RNA: GGGAGUUCUACAGUCCGACGAUCACAGAUAGCAGGAAGAAAAACAGUAAUUAAUAAUCCAACAUAAAAUGACACUGUCAACGGUUCAGUUUAGUGCCCUAGUUCAAUUUAUUUAACUUCUGCCCUUGUAGGCCUGGUGUGACCCAACAGAGGAUUGAGCAUCA
B2: chr9:31209820:31209821:+_ENSMUSG00000042185_ENSMUST00000086167|mus_mus|motif|central (ssRNA)
RNA: GGGAGUUCUACAGUCCGACGAUCAUUUUCCUUACAGAAGGCCUGGUCUUUGGUUUCCAGCCACAGGUGGAAGAGAGCAGCGGAUUCCUUUUCAUUAUCUUGAGAUUGACCAAGCAAUUUCCACUGCUGGGUUUUCUCUUUGAACAACAGAGGAUUGAGCAUCA
B3: 91020203_91021877_1494_CDS_ENSMUSG00000030091_ENSMUST00000032179|mouse|control|control (ssRNA)
RNA: GGGAGUUCUACAGUCCGACGAUCCAUGACCCCCUUGACGGUGACUGUGGCAACCAUGGAGCUUGACGAAGACCAGCUGAAGUUCCCACUGCCCCCAUGGGCCUUUAUGGUAUACUGAUAGGCGCCUGUCUUUGGUUGCCAUGGCAACAGAGGAUUGAGCAUCA
B4: chr4:128986876:128986877:-_ENSMUSG00000057236_ENSMUST00000102598|mus_hu|motif|central (ssRNA)
RNA: GGGAGUUCUACAGUCCGACGAUCCUGCUGGUGAAACAGGUCACCCAAAAUGGAGAUGGCAUCAAACUAGUGGUCAAGGACGGACUCCAUUUGCCACACUUGCAUGAUAUUGUCUUCUGAUACAGAACAAAUCACCCAAGGUUCCAACAGAGGAUUGAGCAUCA
B5: chr2:198367945:198367946:+_ENSG00000115541_ENST00000409468|hu_hu|FALSE|FALSE (ssRNA)
RNA: GGGAGUUCUACAGUCCGACGAUCGCCAUUUCAAUAGUGACUUAUUUCAGUCUACGUACUUUCCAAGAAUGUCACCAUCUCUAAAUAGGAAAUAAUCCUGCAAGUGAAAAAAACCAUUAGUUAAGACAACUAAUUGCAAAUAUCCAACAGAGGAUUGAGCAUCA
B6: chr16:94645698:94645699:+_ENSMUSG00000040785_ENSMUST00000117648|mus_hu|FALSE|FALSE (ssRNA)
RNA: GGGAGUUCUACAGUCCGACGAUCAUAUCCAUGGCACUUCUGAUAGCAACAAAUGGCAUCUGGCACUGGAGGGAACUUGCAUUCUUCAACAAAUUUCUCUAACAGCAUCUUUAUUUUUUGUGGCUGAGACUCUUCAAUAAUCACCAACAGAGGAUUGAGCAUCA
B7: chr5:146773622:146773623:-_ENSG00000113657_ENST00000343218|hu_mus|FALSE|FALSE (ssRNA)
RNA: GGGAGUUCUACAGUCCGACGAUCUCUUGCUUCUGCCUCCCUCUUUGGGAGGGCUUAACUCAGGGAUGUGAUGUUAGAACGGCCUCCAGGGGGUGCCACAAUGCGUUUGCUAGCUGAGCGGACACCCUCAUCCACUUGGGUGCCCAACAGAGGAUUGAGCAUCA
B8: chr17:88987509:88987510:+_ENSMUSG00000034709_ENSMUST00000038551|mus_hu|FALSE|FALSE (ssRNA)
RNA: GGGAGUUCUACAGUCCGACGAUCAAGAGAGAGAGAGAGAGAGAGAGAGAGAGAGAAAUAUGAACAAAUCUUUUAAAAAGAAUCUGGAGAAUGCCUUCAACUAUAAUAAGAAGUAAUGACAGUUUGACAAUUUAAGCAUUUUUUCAACAGAGGAUUGAGCAUCA
B9: chr15:90999404:90999405:+_ENSG00000140575_ENST00000268182|hu_mus|FALSE|FALSE (ssRNA)
RNA: GGGAGUUCUACAGUCCGACGAUCCUGCAGAGUCUUCUGAGCGUCCCCUUCAUCCAGGGCUUCAUUAAUCAAGCCGAUGGCCAAAAUCCGCUCAUGCUCCUCAUGGACCACCAGGUUCACAUGGUCCACACACGCCUGGAUGUCCAACAGAGGAUUGAGCAUCA
B10: chr6:41757443:41757444:+_ENSG00000214736_ENST00000398881|hu_mus|hu_hu_hu_mus_False|28_68 (ssRNA)
RNA: GGGAGUUCUACAGUCCGACGAUCGAACCGUGCAGAGGCAACAUCUCAGCCGACACUGGGGGAUGGGGGAACAAAAGGGGGGGGUUCAGGCAAGGAGAGGGAGUCAACCCAUCUGAACACUCAGGUAGGAUCUUGUGGUCACAGCAACAGAGGAUUGAGCAUCA
B11: chr2:52995849:52995850:-_ENSMUSG00000061136_ENSMUST00000076313|mus_mus|motif|central (ssRNA)
RNA: GGGAGUUCUACAGUCCGACGAUCAAGAGUCAGAAAUUUAGGACUGCCCCAUCACCUGUGCCUUCAUACUACGUCGGGCAACGGCAAUGUGUCUGAUGGUAUAAUCAAAACAAGACAAUAGAGUAGACUGGAUUUACAUGUUUUCAACAGAGGAUUGAGCAUCA
B12: 37245145_37245265_1605_CDS_ENSMUSG00000075376_ENSMUST00000100143|mouse|control|control (ssRNA)
RNA: GGGAGUUCUACAGUCCGACGAUCAUUAGUGCCAACCUUCCCGACUUUCUUCACAGUCUCCAAAGUCCUUACUGCACUGUCAGUGCCUCGUGGGAUUAGCUGAGAAACACUGCUUUCUGUAUUUGAAAUUCCAUUUGUACUUGCCAACAGAGGAUUGAGCAUCA
B13: chr4:76721835:76721836:+_ENSG00000138768_ENST00000264904|hu_mus|hu_hu_hu_mus_True|18_78 (ssRNA)
RNA: GGGAGUUCUACAGUCCGACGAUCGUUUGGCUGGGGUUUCUGAGACGCUCUGGAAUAAACUCAUGUUUUGCUAAUAAAUCCUAGUUUCUCUAUGAAAUUCUCUUUGCCAAUCCUCUUUCAAUCAGUUUGCUUUAGUUUCUCUUUCAACAGAGGAUUGAGCAUCA
B14: chr3:35977374:35977375:+_ENSMUSG00000027710_ENSMUST00000011492|mus_mus|FALSE|FALSE (ssRNA)
RNA: GGGAGUUCUACAGUCCGACGAUCCACAGGCACUCUGGUAUUUUCAAAAUGGACCUCACAUGUGUUGGAGCCUCGAAUGCCUAAUUUAUCUUCAGGUUUCCCAUUAGUGAUUCCGCCGAAGUCUCUUUCUACUAUGAAUGCGGUCAACAGAGGAUUGAGCAUCA
B15: chr4:21667751:21667752:+_ENSMUSG00000028252_ENSMUST00000108240|mus_hu|FALSE|FALSE (ssRNA)
RNA: GGGAGUUCUACAGUCCGACGAUCUUCUAAUAUAUGAUUCAUCCUAUAAGGAAAUUCCUUUGGAAAGGCAUAUGAAAAUCUAGUUUUUAAUACAGAAGUAGCAGCAGCAAUCAAUCUUGUAUUUGAAACUACUCCAAAUUCCUCCAACAGAGGAUUGAGCAUCA
B16: chr2:152319639:152319640:+_ENSG00000080345_ENST00000243326|hu_hu|FALSE|FALSE (ssRNA)
RNA: GGGAGUUCUACAGUCCGACGAUCUUGCCUCCGACUUGUAGGGUAUGGGGGAGUUCCAGCAACAGUGGUAUUAGAAACUGAACUACUGCUGACAACGAAAGAAUUUUCUGUACUAGAUGCACAUUCAGUUGAUGUUUUCCUUGACAACAGAGGAUUGAGCAUCA
B17: chr7:149068622:149068623:-_ENSMUSG00000025139_ENSMUST00000001950|mus_hu|mus_mus_mus_hu_False|8_8 (ssRNA)
RNA: GGGAGUUCUACAGUCCGACGAUCGUGAGGCCUCUGAGUGUGGCUUGUGGUCUGUCCUGGGUUAGAGUUGUUAAUAUCACGGAACAUACCAUCUAGAACGUUCCAGUCCCGCCUGACACCUUCAUUCGCAAGAGGGCAGAAAUCCAACAGAGGAUUGAGCAUCA
B18: chr10:28872372:28872373:+_ENSG00000095787_ENST00000354911|hu_hu|FALSE|FALSE (ssRNA)
RNA: GGGAGUUCUACAGUCCGACGAUCUGCAUCUGAAGUUUUGCUUGGGUUAUUGCUUGGAUUAGAAGAAUGUGAAUUUGAACUAUGAAGAGCACUGUGGUUGUGUGAAUUUUCUUGUGGAGAGUAACUGGUCCCACCAUCCCUCUCCAACAGAGGAUUGAGCAUCA
B19: chr2:132618855:132618856:+_ENSMUSG00000027350_ENSMUST00000028826|mus_mus|FALSE|FALSE (ssRNA)
RNA: GGGAGUUCUACAGUCCGACGAUCUUCAGGUUCUUCUUCUGAAGCCCUGUAGUGAGCUAGAUGGUGACUCCUUUUUUCCCCUAAACGGACUGUGGCCACAUCUGCCUCCUUGGACUCCUUGGGAGAGGGUCUCCUUUCCUCAGACAACAGAGGAUUGAGCAUCA
B20: chr7:135837783:135837784:+_ENSMUSG00000042105_ENSMUST00000151237|mus_mus|FALSE|FALSE (ssRNA)
RNA: GGGAGUUCUACAGUCCGACGAUCUAGGUUGCCGAUGUUCACAUUGGAUUUGGUCUGCUUUACUUUUUGAUUUAGAGAUGAAAAUUUGCUCAUUAAAAAGCUUUUCCCCUGGGCAAGAGAGCCUUGGUUUUGAGAUCUGAUACCCAACAGAGGAUUGAGCAUCA
B21: chr10:33190432:33190433:-_ENSG00000150093_ENST00000302278|hu_mus|hu_hu_hu_mus_True|28_38 (ssRNA)
RNA: GGGAGUUCUACAGUCCGACGAUCUACAUUUUCCAAACCUGCAUGUGAAUAAAACCCUGGCCACAGAGCCCCAAAACUACCCUACUGUGACUAAGAUAAUUGCUACUUUGCAUUCAGGUUGCAAAAUCCGCCUGAGUAGGAUUCCAACAGAGGAUUGAGCAUCA
B22: chr2:202488911:202488912:-_ENSG00000155755_ENST00000286196|hu_mus|hu_hu_hu_mus_False|1_68 (ssRNA)
RNA: GGGAGUUCUACAGUCCGACGAUCAUUGAAACAUUUUUCAUAAUCUCCAGUAGCAUUUCAGCAUUAUUAAUCAAAAACUCAAUUGUAAAUACAUGUAUCUUAUAAAAAUACACUUAAAAACACGAGUGGGGAGCGCACAAAUACCAACAGAGGAUUGAGCAUCA

This test deals with T1, UNK ZnF1-3. Kind of test: nsRBNS (natural sequence RNA bind-n-seq); RBNS binding buffer (assumed for nsRBNS): 25 mM Tris pH 7.5, 150 mM KCl, 3 mM MgCl2, 0.01% Triton X-100, 500 ug/ml BSA, 20 U/ml SUPERase-In, 4 C; UNK is unkempt and MSI1 is Musashi-1; names of the RNAs are library labels; protein concentration not given here; high values mean tight binding.
In turn, B1 showed a binding signal of 1.31 enrichment R.
The molecule B2 gave a binding signal of 0.429 enrichment R.
For B3 the value was 0.642 enrichment R; for B4, 1.23 enrichment R; for B5, 0.825 enrichment R.
Then B6, with 1.61 enrichment R.
The molecule B7 yielded a binding signal of 0.61 enrichment R.
For B8, the binding signal came out at 1.67 enrichment R.
Then B9, with 0.695 enrichment R.
As for B10, the binding signal turned out to be 2.49 enrichment R.
In turn, B11 gave a binding signal of 0.584 enrichment R.
For B12, the binding signal was 0.763 enrichment R.
On to B13, for which the binding signal came to 0.496 enrichment R.
As for B14, the binding signal stood at 0.764 enrichment R.
In the case of B15, the binding signal was determined as 0.759 enrichment R.
For the molecule B16, the binding signal stood at 0.915 enrichment R.
Then B17, with 0.921 enrichment R; and B18, with 1.35 enrichment R.
On to B19, for which the binding signal worked out at 0.487 enrichment R.
For the molecule B20, the binding signal was found to be 0.964 enrichment R.
For B21 the value was 0.889 enrichment R; for B22, 1.67 enrichment R.
